In the supplement of paper PMC4604168 (melanoma cell lines):
This is one part of the list. Most values come without repeats; read them as rough.

System: COLO829
Test: cell count relative to DMSO control; melanoma cells; higher = more viable cells
Settings: library dose: standard library concentration; 72 h
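Further: cells treated in 1,536-well plates, then fixed and DAPI-stained, with nuclei counted from automated high-throughput microscope images.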

SMILES	cell count
COc1ccc(C2=N[C@@H](c3ccc(Cl)cc3)[C@@H](c3ccc(Cl)cc3)N2C(=O)N2CCNC(=O)C2)c(OC(C)C)c1 [Nutlin-3] + Nc1nc(F)nc2c1ncn2[C@@H]1O[C@H](CO)[C@@H](O)[C@@H]1O [fludarabine] (first compound 0.5 µM, partner dose 1 µM)	75.7%
Cn1c(=O)n(-c2ccc(C(C)(C)C#N)cc2)c2c3cc(-c4cnc5ccccc5c4)ccc3ncc21 + COc1ccc2c(c1)CCC1C2CCC2(C)C(NCCCCCCN3C(=O)C=CC3=O)CCC12 [U73122] (first compound 0.02 µM, partner dose 2 µM)	79.4%
CC(C)C[C@H](NC(=O)[C@H](Cc1ccccc1)NC(=O)c1cnccn1)B(O)O [Bortezomib] + CC(=O)c1c(C)c2cnc(Nc3ccc(N4CCNCC4)cn3)nc2n(C2CCCC2)c1=O [palbociclib] (first compound 0.005 µM, partner dose 0.2 µM)	15.2%
Cn1c(=O)n(-c2ccc(C(C)(C)C#N)cc2)c2c3cc(-c4cnc5ccccc5c4)ccc3ncc21 + Cn1cncc1[C@@](N)(c1ccc(Cl)cc1)c1ccc2c(c1)c(-c1cccc(Cl)c1)cc(=O)n2C [tipifarnib] (first compound 0.02 µM, partner dose 0.05 µM)	70.4%
Cc1cc(Nc2cc(N3CCN(C)CC3)nc(/C=C/c3ccccc3)n2)n[nH]1 + CCN(CC)CCCCNc1ncc2cc(-c3cc(OC)cc(OC)c3)c(NC(=O)NC(C)(C)C)nc2n1 [PD173074] (first compound 0.2 µM, partner dose 0.5 µM)	107%
